Experimental data as given in PMC10645070, “Cx43 can form functional channels at the nuclear envelope and modulate gene expression in cardiac cells” (Open Biology, 2023).

Target: the molecule itself
Assay: electrophoresis in non-reducing conditions with western blot; nuclear Cx43 from purified and crude nuclei, migration profile in non-reducing conditions

B1: Connexin43 (Cx43) of rat origin, stably expressed in HEK293 cells (HEK293^Cx43+) (natural protein)
chain: not shown
notes: Connexin43 (Cx43), rat, full-length; Immunoprecipitated with goat anti-Cx43 AB0016 (tool); also called nuclear Cx43; full-length Cx43; source: in purified nuclear or whole-cell extracts
stoichiometry N: 2 and 6

Where “and” joins values, the source holds several entries; their conditions need not be identical. Equal entries are not always repeated.
